Laboratory results published in patent US20230374090A1 (SURROZEN OPERATING, published 2023).

Legend:
[1] = target: T1, ASGR1 antigen (Homo sapiens (Human), UniProt P07306 62-291, Biotinylated for capture on streptavidin sensors; the site and manner of biotinylation are not stated in the passages seen.); assay: ASGR1 binding assay, loading sample bio-ASGR1; Full R^2 0.9987
T1 construct: also called biotinylated ASGR1
T1 sequence: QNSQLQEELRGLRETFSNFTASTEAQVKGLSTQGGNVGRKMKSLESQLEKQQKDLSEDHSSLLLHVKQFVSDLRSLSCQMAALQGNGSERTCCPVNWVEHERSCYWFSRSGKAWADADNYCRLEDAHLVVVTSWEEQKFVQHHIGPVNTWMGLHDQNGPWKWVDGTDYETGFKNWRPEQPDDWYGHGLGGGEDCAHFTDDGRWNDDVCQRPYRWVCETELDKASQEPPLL

[2] = target: T1, ASGR1 antigen; assay: binding to ASGR1 antigen (Octet binding per paragraph 285/paragraph 287; method not printed on the sheet)
[3] = target: T1, ASGR1 antigen; assay: BLI, Octet Red96e, biotinylated ASGR1 on streptavidin sensors, bivalent analyte model; Full R^2 0.9987
Source text: (§1) FIGS. 39A-C show binding of various Wnt signal enhancing molecules comprising the indicated combinations of point mutations as compared to the initial αASGR1-RSPO2 Wnt signaling enhancer molecule (NG or “wild type”). FIG. 39A is a table showing kinetic fir parameters from the data in FIGS. 39B and 39C. Data was fit using the bivalent analyte model in the ForteBIO Data Analysis Software. FIGS. 39B-39C provide data from serial dilutions of the various Wnt signal enhancing molecules tested for binding using biotinylated ASGR1 captured on streptavidin sensors using the Octet Red96e.

[4] = target: T1, ASGR1 antigen; assay: ASGR1 binding assay, loading sample bio-ASGR1; kdis(1/s); Full R^2 0.9987
[5] = target: T1, ASGR1 antigen; assay: BLI, Octet Red96e, biotinylated ASGR1 on streptavidin sensors, bivalent analyte model; kdis(1/s); Full R^2 0.9987
Source text: as §1

Kd [1]: 31.3 nM | kon [1]: 253000 M⁻¹ s⁻¹ | Kd [2]: 7.67 nM | koff [2]: 0.00181 s⁻¹ | kon [2]: 236000 M⁻¹ s⁻¹ | Kd [3]: 31.3 nM | kon [3]: 253000 M⁻¹ s⁻¹ | koff [4]: 0.00789 s⁻¹ | koff [5]: 0.00789 s⁻¹
B1: 1R34-DDNN/RA (other)
light: SSELTQDPAVSVALGQTVRITCQGDSLRSYYASWYQQKPGQAPVLVIYGKNNRPSGIPDRFSGSSSGNTASLTITGAQAEDEADYYCNSLERIGYLSYVFGGGTKLTVLGQPKAAPSVTLFPPSSEELQANKATLVCLISDFYPGAVTVAWKADSSPVKAGVETTTPSKQSNNKYAASSYLSLTPEQWKSHRSYSCQVTHEGSTVEKTVAPTECS
heavy: NPICKGCLSCSKDNGCSRCQQKLFFFLRREGMRQYGECLHSCPSGYYGHRAPDMNRCARCRIENCDSCRSKDACTKCKVGFYLHRGRCFDECPDGFAPLEETMECVEGGGGSGSGGSGGGGS[… about 100 residues …][… about 120 residues …][… human IgG1 Fc with changes …]
notes: Anti-ASGR1 IgG1 (N297G) with modified human RSPO2 (F105R, F109A) fused through a linker to the N-terminus of each heavy chain; the heavy entry is the whole fusion; also called NG; wild type
